# Reference: the supplement of paper PMC8728848
# Some of the results follow.
# Experiments:
# Assay in all cases: glycan array binding signal (z-score within array); higher = stronger binding
# Details in all cases: glycan notation: IUPAC condensed, linker removed
# [1] = target: Neu5Ac(a2-6)Gal(b1-4)GlcNAc(b1-2)Man(a1-6)[Man(a1-3)]Man(b1-4)GlcNAc(b1-4)GlcNAc
# Method in brief: (§1)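 Arrays were curated from the Consortium for Functional Glycomics database, 3228 in total, and kept only where the protein sequence was available. Binding is expressed as a within-array Z-score. This score was averaged across arrays of the same protein sequence at different concentrations or buffers and across linkers, and negative values can be read as non-binding.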
# [2] = target: Neu5Ac(a2-6)Gal(b1-4)GlcNAc(b1-3)Gal(b1-3)GlcNAc
# Method in brief: as §1
# [3] = target: Neu5Ac(a2-6)Gal(b1-4)GlcNAc(b1-3)Gal(b1-4)GlcNAc
# Method in brief: as §1
# [4] = target: Neu5Ac(a2-6)Gal(b1-4)GlcNAc(b1-3)Gal(b1-4)GlcNAc(b1-3)Gal(b1-4)GlcNAc
# Method in brief: as §1
# [5] = target: Neu5Ac(a2-6)Gal(b1-4)GlcNAc(b1-3)Gal(b1-4)[Fuc(a1-3)]GlcNAc(b1-3)Gal(b1-4)[Fuc(a1-3)]GlcNAc
# Method in brief: as §1
# [6] = target: Neu5Ac(a2-6)Gal(b1-4)GlcNAc(b1-3)GalNAc
# Method in brief: as §1
# [7] = target: Neu5Ac(a2-6)Gal(b1-4)GlcNAc6S
# Method in brief: as §1
# Neu5Ac(a2-6)GalNAc = target: Neu5Ac(a2-6)GalNAc
# Method in brief: as §1
# [8] = target: Neu5Ac(a2-6)GalNAc(b1-4)GlcNAc
# Method in brief: as §1
# [9] = target: Neu5Ac(a2-6)GlcNAc(b1-4)GlcNAc
# Method in brief: as §1
# [10] = target: Neu5Ac(a2-6)GlcNAc(b1-4)GlcNAc(b1-4)GlcNAc
# Method in brief: as §1
# Neu5Ac(a2-8)Neu5Ac = target: Neu5Ac(a2-8)Neu5Ac
# Method in brief: as §1
# [11] = target: Neu5Ac(a2-8)Neu5Ac(a2-3)Gal(b1-3)GalNAc(b1-4)[Neu5Ac(a2-8)Neu5Ac(a2-3)]Gal(b1-4)Glc
# Method in brief: as §1
# [12] = target: Neu5Ac(a2-8)Neu5Ac(a2-3)Gal(b1-4)Glc
# Method in brief: as §1
# [13] = target: Neu5Ac(a2-8)Neu5Ac(a2-3)[Gal(b1-3)GalNAc(b1-4)]Gal(b1-4)Glc
# Method in brief: as §1
# [14] = target: Neu5Ac(a2-8)Neu5Ac(a2-3)[GalNAc(b1-4)]Gal(b1-4)Glc
# Method in brief: as §1
# [15] = target: Neu5Ac(a2-8)Neu5Ac(a2-8)Neu5Ac
# Method in brief: as §1
# [16] = target: Neu5Ac(a2-8)Neu5Ac(a2-8)Neu5Ac(a2-3)Gal(b1-4)Glc
# Method in brief: as §1
# [17] = target: Neu5Ac(a2-8)Neu5Ac(a2-8)Neu5Ac(a2-3)[GalNAc(b1-4)]Gal(b1-4)Glc
# Method in brief: as §1
# [18] = target: Neu5Ac(a2-8)Neu5Ac(a2-8)Neu5Ac(a2-8)Neu5Ac(a2-3)[GalNAc(b1-4)]Gal(b1-4)Glc
# Method in brief: as §1
# [19] = target: Neu5Ac(b2-6)Gal(b1-4)GlcNAc
# Method in brief: as §1
# Neu5Ac(b2-6)GalNAc = target: Neu5Ac(b2-6)GalNAc
# Method in brief: as §1
# [20] = target: Neu5Ac9Ac(a2-3)Gal(b1-3)GlcNAc
# Method in brief: as §1
# [21] = target: Neu5Ac9Ac(a2-3)Gal(b1-4)GlcNAc
# Method in brief: as §1
# [22] = target: Neu5Ac9Ac(a2-6)Gal(b1-4)GlcNAc
# Method in brief: as §1
# [23] = target: Neu5Gc(a2-3)Gal(b1-3)GlcNAc
# Method in brief: as §1
# [24] = target: Neu5Gc(a2-3)Gal(b1-3)[Fuc(a1-4)]GlcNAc
# Method in brief: as §1
# Neu5Gc(a2-3)Gal(b1-4)Glc = target: Neu5Gc(a2-3)Gal(b1-4)Glc
# Method in brief: as §1
# [25] = target: Neu5Gc(a2-3)Gal(b1-4)GlcNAc
# Method in brief: as §1
# [26] = target: Neu5Gc(a2-3)Gal(b1-4)[Fuc(a1-3)]GlcNAc
# Method in brief: as §1
# [27] = target: Neu5Gc(a2-6)Gal(b1-4)GlcNAc
# Method in brief: as §1
# Neu5Gc(a2-6)GalNAc = target: Neu5Gc(a2-6)GalNAc
# Method in brief: as §1
# [28] = target: Neu5Gc(b2-6)Gal(b1-4)GlcNAc
# Method in brief: as §1
binder,measurement,setting,value
"GNAT (Pseudomonas aeruginosa), Q9HV14 (protein) MQLSHRPAETGDLETVAGFPQDRDELFYCYPKAIWPFSVAQLAAAIAERRGSTVAVHDGQVLGFANFYQWQHGDFCALGNMMVAPAARGLGVARYLIGVMENLAREQYKARLMKISCFNANAAGLLLYTQLGYQPRAIAERHDPDGRRVALIQMDKPLEP",glycan array binding signal (z-score),[1],-0.341
same,glycan array binding signal (z-score),[2],-0.3
same,glycan array binding signal (z-score),[3],-0.454
same,glycan array binding signal (z-score),[4],-0.331
same,glycan array binding signal (z-score),[5],-0.015
same,glycan array binding signal (z-score),[6],0.079
same,glycan array binding signal (z-score),[7],-0.25
same,glycan array binding signal (z-score),Neu5Ac(a2-6)GalNAc,-0.404
same,glycan array binding signal (z-score),[8],-0.396
same,glycan array binding signal (z-score),[9],-0.449
same,glycan array binding signal (z-score),[10],-0.444
same,glycan array binding signal (z-score),Neu5Ac(a2-8)Neu5Ac,-0.409
same,glycan array binding signal (z-score),[11],-0.264
same,glycan array binding signal (z-score),[12],-0.435
same,glycan array binding signal (z-score),[13],-0.25
same,glycan array binding signal (z-score),[14],-0.165
same,glycan array binding signal (z-score),[15],-0.3
same,glycan array binding signal (z-score),[16],-0.215
same,glycan array binding signal (z-score),[17],-0.262
same,glycan array binding signal (z-score),[18],-0.322
same,glycan array binding signal (z-score),[19],0.567
same,glycan array binding signal (z-score),Neu5Ac(b2-6)GalNAc,-0.413
same,glycan array binding signal (z-score),[20],-0.297
same,glycan array binding signal (z-score),[21],-0.214
same,glycan array binding signal (z-score),[22],-0.479
same,glycan array binding signal (z-score),[23],-0.468
same,glycan array binding signal (z-score),[24],-0.266
same,glycan array binding signal (z-score),Neu5Gc(a2-3)Gal(b1-4)Glc,-0.407
same,glycan array binding signal (z-score),[25],-0.316
same,glycan array binding signal (z-score),[26],-0.413
same,glycan array binding signal (z-score),[27],-0.437
same,glycan array binding signal (z-score),Neu5Gc(a2-6)GalNAc,-0.312
same,glycan array binding signal (z-score),[28],1.53
